From US5698670A, “Aureobasidins” (priority 1993, dated 1997)
≈ marks a conversion by molar mass, not a printed value. Part of at least one peptide drawing is inferred or uncertain, most often the ends. Some results were stated once for a whole list of compounds, not compound by compound. Numbered stars: 1 amine (or outer) side, 2 acyl side, 3 side chain; on linkers, the order of the positions; unused ones are H or OH. Square brackets hold non-standard residues; d marks the D form. Peptide text beside a SMILES is read from it. * marks the point of attachment. X1 = CC[C@@H](C)[C@@H](O[*:1])C(=O)[*:2]; NMeVal(β-OH) = CN[C@H](C(=O)O)C(C)(C)O; Phe(4-F) = N[C@@H](Cc1ccc(F)cc1)C(=O)O; NMeF = CN[C@@H](Cc1ccccc1)C(=O)O; aIle = CC[C@@H](C)[C@H](N)C(=O)O; Cyclohexylmethyl = C1CCC(C*)CC1; Cha = N[C@@H](CC1CCCCC1)C(=O)O; dNMeV = CN[C@@H](C(=O)O)C(C)C; NMeV = CN[C@H](C(=O)O)C(C)C; dNMeS = CN[C@H](CO)C(=O)O; dNMeA = CN[C@H](C)C(=O)O; Bn = c1ccc(C*)cc1

Assays:
ICR mouse = experiment: Toxicity after intraperitoneal administration to ICR mouse; format: in vivo; details: intraperitoneally, 100 mg/kg
[1] = system: Candida albicans TIMM0171; experiment: MIC by agarose plate dilution method; format: cell-based; details: saburo-dextrose agarose culture, 30° C., 2 days
Description: (§1) MIC was measured by agarose plate dilution method (cultivated at 30° C. for 2 days) using saburo-dextrose agarose culture (glucose 2 W/V %, polipeptone 1 W/V %, agarose 1.5 W/V %). Control was Aureobasidin A (AbA).

[2] = system: Candida glabrata TIMM1062; experiment: MIC by agarose plate dilution method; format: cell-based; details: saburo-dextrose agarose culture, 30° C., 2 days
Description: as §1

Candida kefyr TIMM0301 = experiment: MIC by agarose plate dilution method; format: cell-based; details: saburo-dextrose agarose culture, 30° C., 2 days
Description: as §1

[3] = system: Candida albicans TIMM0136; experiment: MIC by agarose plate dilution method; format: cell-based; details: saburo-dextrose agarose culture, 30° C., 2 days
Description: as §1

[4] = system: Cryptococcus neoformans TIMM0354; format: cell-based; details: saburo-dextrose agarose culture, 30° C., 2 days
Description: as §1

[5] = system: Aspergillus fumigatus TIMM2766; format: cell-based; details: saburo-dextrose agarose culture, 30° C., 2 days
Description: as §1

CC[C@@H](C)[C@@H]1NC(=O)[C@@H]2CCCN2C(=O)[C@@H](C)N(C)C(=O)[C@H](Cc2ccccc2)NC(=O)[C@H](C(C)C)N(C)C(=O)[C@@H]([C@H](C)CC)OC(=O)[C@H](C(C)(C)O)N(C)C(=O)[C@H](CC(C)C)NC(=O)[C@H](C(C)C)N(C)C1=O [Compound 1, cyclo(L -aIle-L -MeVal-L -Leu-L -βHOMeVal-D -Hmp-L -MeVal-L -Phe-D -MeAla-L -Pro)] (cyclo([aIle][NMeV]L[NMeVal(β-OH)][X1][NMeV]F[dNMeA]P))
toxicity (ICR mouse): no toxicity was detected

CC[C@@H](C)[C@@H]1NC(=O)[C@@H]2CCCN2C(=O)[C@@H](C(C)C)N(C)C(=O)[C@H](CC2CCCCC2)NC(=O)[C@H](C(C)C)N(C)C(=O)[C@@H]([C@H](C)CC)OC(=O)[C@H](C(C)(C)O)N(C)C(=O)[C@H](CC(C)C)NC(=O)[C@H](C(C)C)N(C)C1=O [Compound 8, cyclo(L -aIle-L -MeVal-L -Leu-L -βHOMeVal-D -Hmp-L -MeVal-L -Cha-D -MeVal-L -Pro)] (cyclo([aIle][NMeV]L[NMeVal(β-OH)][X1][NMeV][Cha][dNMeV]P))
toxicity (ICR mouse): no toxicity was detected

CC[C@@H](C)[C@@H]1NC(=O)[C@@H]2CCCN2C(=O)[C@@H](C)N(C)C(=O)[C@H](Cc2ccc(OCC3CCCCC3)cc2)NC(=O)[C@H](C(C)C)N(C)C(=O)[C@@H]([C@H](C)CC)OC(=O)[C@H](C(C)(C)O)N(C)C(=O)[C@H](CC(C)C)NC(=O)[C@H](C(C)C)N(C)C1=O [Compound 12, cyclo(L -aIle-L -MeVal-L -Leu-L -βHOMeVal-D -Hmp-L -MeVal-L -Tyr(c-C6 H11 --CH2 --)-D -MeAla-L -Pro)] (cyclo([aIle][NMeV]L[NMeVal(β-OH)][X1][NMeV]Y(Cyclohexylmethyl)[dNMeA]P))
toxicity (ICR mouse): no toxicity was detected

CC[C@@H](C)[C@@H]1NC(=O)[C@@H]2CCCN2C(=O)[C@@H](C(C)C)N(C)C(=O)[C@H](Cc2ccccc2)NC(=O)[C@H](C(C)C)N(C)C(=O)[C@@H]([C@H](C)CC)OC(=O)[C@H](C(C)(C)O)N(C)C(=O)[C@H](CC(C)C)NC(=O)[C@H](C(C)C)N(C)C1=O [Compound 2, cyclo(L -aIle-L -MeVal-L -Leu-L -βHOMeVal-D -Hmp-L -MeVal-L -Phe-D -MeVal-L -Pro)] (cyclo(F[dNMeV]P[aIle][NMeV]L[NMeVal(β-OH)][X1][NMeV]))
toxicity (ICR mouse): no toxicity was detected

CC[C@@H](C)[C@@H]1NC(=O)[C@@H]2CCCN2C(=O)[C@@H](C)N(C)C(=O)[C@H](Cc2ccc(F)cc2)NC(=O)[C@H](C(C)C)N(C)C(=O)[C@@H]([C@H](C)CC)OC(=O)[C@H](C(C)(C)O)N(C)C(=O)[C@H](CC(C)C)NC(=O)[C@H](C(C)C)N(C)C1=O [Compound 4, cyclo(L -aIle-L -MeVal-L -Leu-L -βHOMeVal-D -Hmp-L -MeVal-L -pFPhe-D -MeAla-L -Pro)] (cyclo(L[NMeVal(β-OH)][X1][NMeV][Phe(4-F)][dNMeA]P[aIle][NMeV]))
MIC [1]: 0.05 µg/mL (≈ 0.0479 µM)
MIC [2]: 0.20 µg/mL (≈ 0.192 µM)
MIC (Candida kefyr TIMM0301): 0.20 µg/mL (≈ 0.192 µM)
MIC [3]: 0.10 µg/mL (≈ 0.0958 µM)
toxicity (ICR mouse): no toxicity was detected
MIC [4]: 3.12 µg/mL (≈ 2.99 µM)

CC[C@@H](C)[C@@H]1NC(=O)[C@@H]2CCCN2C(=O)[C@@H](C)N(C)C(=O)[C@H](Cc2ccc(OCc3ccccc3)cc2)NC(=O)[C@H](C(C)C)N(C)C(=O)[C@@H]([C@H](C)CC)OC(=O)[C@H](C(C)(C)O)N(C)C(=O)[C@H](CC(C)C)NC(=O)[C@H](C(C)C)N(C)C1=O [Compound 10, cyclo(L -aIle-L -MeVal-L -Leu-L -βHOMeVal-D -Hmp-L -MeVal-L -Tyr(Bzl)-D -MeAla-L -Pro)] (cyclo(L[NMeVal(β-OH)][X1][NMeV]Y(Bn)[dNMeA]P[aIle][NMeV]))
MIC [1]: 0.05 µg/mL (≈ 0.0442 µM)
MIC [2]: 1.56 µg/mL (≈ 1.38 µM)
MIC (Candida kefyr TIMM0301): 0.78 µg/mL (≈ 0.689 µM)
MIC [3]: 0.05 µg/mL (≈ 0.0442 µM)
toxicity (ICR mouse): no toxicity was detected
MIC [5]: 1.56 µg/mL (≈ 1.38 µM)
MIC [4]: 0.78 µg/mL (≈ 0.689 µM)

CC[C@@H](C)[C@@H]1NC(=O)[C@@H]2CCCN2C(=O)[C@@H](C)N(C)C(=O)[C@H](COCc2ccccc2)NC(=O)[C@H](C(C)C)N(C)C(=O)[C@@H]([C@H](C)CC)OC(=O)[C@H](C(C)(C)O)N(C)C(=O)[C@H](CC(C)C)NC(=O)[C@H](C(C)C)N(C)C1=O [Compound 7, cyclo(L -aIle-L -MeVal-L -Leu-L -βHOMeVal-D -Hmp-L -MeVal-L -Ser(Bzl)-D -MeAla-L -Pro)] (cyclo(L[NMeVal(β-OH)][X1][NMeV]S(Bn)[dNMeA]P[aIle][NMeV]))
toxicity (ICR mouse): no toxicity was detected

CC[C@@H](C)[C@@H]1NC(=O)[C@@H]2CCCN2C(=O)[C@H](Cc2ccccc2)N(C)C(=O)[C@H](CC2CCCCC2)NC(=O)[C@H](C(C)C)N(C)C(=O)[C@@H]([C@H](C)CC)OC(=O)[C@H](C(C)(C)O)N(C)C(=O)[C@H](CC(C)C)NC(=O)[C@H](C(C)C)N(C)C1=O [Compound 6, cyclo(L -aIle-L -MeVal-L -Leu-L -βHOMeVal-D -Hmp-L -MeVal-L -Cha-L -MePhe-L -Pro)] (cyclo([aIle][NMeV]L[NMeVal(β-OH)][X1][NMeV][Cha][NMeF]P))
toxicity (ICR mouse): no toxicity was detected

CC[C@@H](C)[C@@H]1NC(=O)[C@@H]2CCCN2C(=O)[C@@H](C)N(C)C(=O)[C@H](CC(C)C)NC(=O)[C@H](C(C)C)N(C)C(=O)[C@@H]([C@H](C)CC)OC(=O)[C@H](C(C)(C)O)N(C)C(=O)[C@H](CC(C)C)NC(=O)[C@H](C(C)C)N(C)C1=O [Compound 5, cyclo(L -aIle-L -MeVal-L -Leu-L -βHOMeVal-D -Hmp-L -MeVal-L -Leu-D -MeAla-L -Pro)] (cyclo(L[dNMeA]P[aIle][NMeV]L[NMeVal(β-OH)][X1][NMeV]))
toxicity (ICR mouse): no toxicity was detected

CC[C@@H](C)[C@@H]1NC(=O)[C@@H]2CCCN2C(=O)[C@@H](CO)N(C)C(=O)[C@H](CC2CCCCC2)NC(=O)[C@H](C(C)C)N(C)C(=O)[C@@H]([C@H](C)CC)OC(=O)[C@H](C(C)(C)O)N(C)C(=O)[C@H](CC(C)C)NC(=O)[C@H](C(C)C)N(C)C1=O [Compound 9, cyclo(L -aIle-L -MeVal-L -Leu-L -βHOMeVal-D -Hmp-L -MeVal-L -Cha-D -MeSer-L -Pro)] (cyclo([aIle][NMeV]L[NMeVal(β-OH)][X1][NMeV][Cha][dNMeS]P))
toxicity (ICR mouse): no toxicity was detected

CC[C@@H](C)[C@@H]1NC(=O)[C@@H]2CCCN2C(=O)[C@@H](C)N(C)C(=O)[C@H](CC2CCCCC2)NC(=O)[C@H](C(C)C)N(C)C(=O)[C@@H]([C@H](C)CC)OC(=O)[C@H](C(C)(C)O)N(C)C(=O)[C@H](CC(C)C)NC(=O)[C@H](C(C)C)N(C)C1=O [Compound 3, cyclo(L -aIle-L -MeVal-L -Leu-L -βHOMeVal-D -Hmp-L -MeVal-L -Cha-D -MeAla-L -Pro)] (cyclo([aIle][NMeV]L[NMeVal(β-OH)][X1][NMeV][Cha][dNMeA]P))
toxicity (ICR mouse): no toxicity was detected

CC[C@@H](C)[C@@H]1NC(=O)[C@@H]2CCCN2C(=O)[C@@H](C)N(C)C(=O)[C@H](Cc2ccc(OC)cc2)NC(=O)[C@H](C(C)C)N(C)C(=O)[C@@H]([C@H](C)CC)OC(=O)[C@H](C(C)(C)O)N(C)C(=O)[C@H](CC(C)C)NC(=O)[C@H](C(C)C)N(C)C1=O [Compound 11, cyclo(L -aIle-L -MeVal-L -Leu-L -βHOMeVal-D -Hmp-L -MeVal-L -Tyr(Me)-D -MeAla-L -Pro)] (cyclo(L[NMeVal(β-OH)][X1][NMeV]Y(Me)[dNMeA]P[aIle][NMeV]))
toxicity (ICR mouse): no toxicity was detected

CC[C@@H](C)[C@@H]1NC(=O)[C@@H]2CCCN2C(=O)[C@H](Cc2ccccc2)N(C)C(=O)[C@H](Cc2ccccc2)NC(=O)[C@H](C(C)C)N(C)C(=O)[C@@H]([C@H](C)CC)OC(=O)[C@H](C(C)(C)O)N(C)C(=O)[C@H](CC(C)C)NC(=O)[C@H](C(C)C)N(C)C1=O [AbA, Aureobasidin A, reference compound] (cyclo(F[NMeF]P[aIle][NMeV]L[NMeVal(β-OH)][X1][NMeV]))
MIC [1]: 0.025 µg/mL (≈ 0.0227 µM)
MIC [2]: 0.20 µg/mL (≈ 0.182 µM)
MIC (Candida kefyr TIMM0301): 0.39 µg/mL (≈ 0.354 µM)
MIC [3]: 0.025 µg/mL (≈ 0.0227 µM)
MIC [5]: > 25 µg/mL
MIC [4]: 0.78 µg/mL (≈ 0.708 µM)
